In PubChem BioAssay AID624417 (National Center for Advancing Translational Sciences (NCATS), 2012):
About 6,400 (1.6%) of roughly 410,000 compounds were called active. Inconclusive means that the source gave no clear call. Such entries were picked first, then a sample of the others. The call rests on the fitted dose curve; in most records, active means well fitted inhibition curve with a large enough effect; inconclusive means small, poorly fitted or top-dose-only effect; inactive means no such curve, though single readings can be large or run the other way. No potency is given beside an inconclusive call; the fits are too rough.

target: Glucagon-like peptide 1 receptor (Homo sapiens) (UniProt P43220); assay: qHTS of GLP-1 Receptor Inverse Agonists (Inhibition Mode); conditions: HEK293 GLP-1R CRE-luciferase, luminescence, 24 h, GLP-1R form is constitutively active; series mostly up to 38.3 µM; further: nearly all actives have a fitted effect of over 55% in size
In short: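 Cells are plated, allowed 12 hours at 37 deg C, then treated with compounds for 24 hr before luciferase detection reagent is added and luminescence is read after 12 min at room temperature. The HEK293 line carries constitutively active GLP-1R with a cAMP-responsive reporter.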
Potency means the concentration at half of the fitted maximal effect; tags describe the fitted curve by direction and shape.

UniProt P43220, sequence (P43220 whole entry, looked up): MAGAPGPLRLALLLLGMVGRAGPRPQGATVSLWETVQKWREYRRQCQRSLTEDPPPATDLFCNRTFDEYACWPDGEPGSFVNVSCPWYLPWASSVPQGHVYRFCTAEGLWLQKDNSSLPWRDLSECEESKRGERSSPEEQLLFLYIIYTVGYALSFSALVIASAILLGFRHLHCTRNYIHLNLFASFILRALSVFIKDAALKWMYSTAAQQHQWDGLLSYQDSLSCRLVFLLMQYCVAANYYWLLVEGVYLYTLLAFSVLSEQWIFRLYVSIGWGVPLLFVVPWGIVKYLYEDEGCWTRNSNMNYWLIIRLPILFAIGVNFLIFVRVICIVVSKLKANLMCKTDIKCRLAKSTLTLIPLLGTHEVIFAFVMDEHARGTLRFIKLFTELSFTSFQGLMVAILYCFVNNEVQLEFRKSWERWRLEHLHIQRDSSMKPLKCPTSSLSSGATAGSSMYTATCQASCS

Compound | Potency
Cc1ccccc1CN1C[C@@H]2C[C@@H](c3cn[nH]c3-c3ccc(F)cc3)N3CCC[C@@]23C1=O | inconclusive [inhibitor, single point]
O=C(CCC1CCCC1)Nc1ccc(C(=O)NCc2cccnc2)cc1 | inconclusive [inhibitor, full curve, poor fit]
Cc1ccccc1CSc1nnc(-c2ccccc2)c(=O)[nH]1 | inconclusive [inhibitor, single point]
O=C(CONS(=O)(=O)c1ccc(Cl)cc1)NCCNc1ncc(C(F)(F)F)cc1Cl | inconclusive [inhibitor, partial curve, poor fit]
COC(=O)[C@@H](CC(C)C)N(Cc1ccccc1)S(=O)(=O)N(Cc1ccccc1)[C@@H](CC(C)C)C(=O)OC | inconclusive [inhibitor, full curve, poor fit]
Cc1cc(N2CCN(C)CC2)nc(=S)[nH]1 | inactive
O=C1NC(=O)/C(=C/c2ccc(OS(=O)(=O)c3ccc(F)cc3F)cc2)N1 | inconclusive [inhibitor, partial curve, poor fit]
CCN1CCN(S(=O)(=O)c2ccc(Cl)c(C(=O)NC(C)c3ccccc3Cl)c2)CC1 (stereo unspecified) | inactive
CCC1Sc2ccc(S(=O)(=O)CCC(=O)NCc3ccco3)cc2NC1=O (stereo unspecified) | inconclusive [inhibitor, single point]
COc1cccc(-c2ccc(-c3noc(-c4cccs4)n3)c(OC)n2)c1 | inactive
COc1cc(NC(=O)CSc2ncnc3sc4c(c23)CCC(C)C4)c(C(=O)O)cc1OC (stereo unspecified) | inactive
Cc1ccc(SCc2ccc(C(=O)NCc3cccnc3)cc2)cc1 | inconclusive [inhibitor, partial curve, poor fit]
O=C(NCCc1ccc(Cl)cc1)C1CCCN(S(=O)(=O)N2CCCCCC2)C1 (stereo unspecified) | active: 5.62 µM
CCOC(=O)c1cc2sccc2n1CC(=O)Nc1ccc(OC)cc1OC | inconclusive [inhibitor, partial curve, poor fit]
COc1cccc(N2CCN(CC(=O)NC3=Nc4ccccc4N=C(C)C3c3ccccc3)CC2)c1 (stereo unspecified) | inconclusive [inhibitor, single point]
Cc1nnc(SCC(=O)NC2CCCCCC2)n1N | inconclusive [inhibitor, partial curve, poor fit]
COc1cc(F)ccc1-c1cc(C(=O)NCc2ccc(C(F)(F)F)cc2)[nH]n1 | inconclusive [inhibitor, single point]
COCn1c(-c2cccc(Br)c2)nc2ccccc21 | inconclusive [inhibitor, single point]
CCN(CC)CC#CCC(C)(c1ccccc1)c1ccccc1 | inconclusive [inhibitor, single point]
NC(=O)/C(=N\OC(=O)c1ccco1)c1nc(-c2ccc(Br)cc2)cs1 | inactive
Cc1ccc(NC(=O)COc2ccc(Cl)cc2Cl)cc1S(=O)(=O)N1CCOCC1 | inconclusive [inhibitor, single point]

Compound | Potency
Cc1cc(C(=O)NCC(=O)OCC(=O)N(C2CCCCC2)C2CCCCC2)ccc1[N+](=O)[O-] | inconclusive [inhibitor, single point]
O=C(NC1C/C=C\C(c2ccccc2)N(c2ccccc2)C(=O)C1)OCC1c2ccccc2-c2ccccc21 (stereo unspecified) | inconclusive [inhibitor, single point]
Cc1cccc(C)c1NC(=O)c1ccc(OCc2c(C)noc2C)cc1 | inconclusive [inhibitor, partial curve, poor fit]
COc1ccc(N2CCN(C(c3ccc(F)cc3)c3sc4nc(-c5ccco5)nn4c3O)CC2)cc1 (stereo unspecified) | inactive
Cc1ccc2cccc(OCc3ccc(F)cc3)c2n1 | inconclusive [inhibitor, partial curve, poor fit]
CCOC(=O)N1CC=C2C(C#N)=C(N)C(C#N)(C#N)[C@H](c3ccsc3)[C@H]2C1 | inactive
CCc1nc2c(OCc3ccc(F)cc3)cccn2c1N(C)C(=O)COc1ccccc1 | inconclusive [inhibitor, single point]
COc1ccc(C(=O)C2CCCN(Cc3ccc4nonc4c3)C2)cc1F (stereo unspecified) | inconclusive [inhibitor, partial curve, poor fit]
CCC(C)NC(=O)c1cnn(-c2cccc(F)c2)c1-n1cccc1 (stereo unspecified) | inconclusive [inhibitor, partial curve, poor fit]
CCN1CCN(C(c2ccc(F)cc2)c2sc3nc(-c4ccco4)nn3c2O)CC1 (stereo unspecified) | inactive
O=C(Oc1c(Cl)cc(Cl)c2cccnc12)N1CCOCC1 | inactive
Cc1ccc(S(=O)(=O)N(CC(=O)NCCSc2ccc(Cl)cc2)c2cccc(Cl)c2)cc1 | inconclusive [inhibitor, partial curve, poor fit]
COc1ccc(NC(=S)NC(=O)/C=C/c2ccccc2)cc1 | inactive
CCOC(=O)C1(Cc2cccc(OC)c2)CCN(Cc2ccc3c(c2)OCCO3)CC1 | inconclusive [inhibitor, partial curve, poor fit]
Cc1cccc(C(=O)Oc2ccccc2C(=O)N2CCOCC2)c1 | inactive
COCCn1c(=O)[nH]c2cc(C(=O)N3CCN(c4cccc(C)c4C)CC3)ccc2c1=O | inconclusive [inhibitor, partial curve, poor fit]
CS(=O)(=O)c1ccc(-c2cn3cc(C(=O)O)ccc3n2)cc1 | inconclusive [inhibitor, full curve, poor fit]
Brc1ccc(C2Nc3cccc4cccc(c34)N2)cc1 | inactive
Cc1ccc(NC(=O)CSc2nccn2C2CCCC2)cc1Cl | inconclusive [inhibitor, single point]
CCCOc1ccc(CNC(=O)C2CCN(C(=O)N3CCOc4ccccc43)CC2)cc1 | inconclusive [inhibitor, partial curve, poor fit]
